Assay results taken from US11000038B2, “Pyridone compounds and agricultural and horticultural fungicides containing the same as active ingredients” (priority 2017, dated 2021).

What was measured:
[1] = system: cucumber anthracnose fungi (Colletotrichum orbiculare); test: Test Example H: cucumber anthracnose, spray treatment of cucumber plants; conditions: for Test H control value: cucumber anthracnose, 6 to 10 days after inoculation; for Test H control value class (cucumber anthracnose): 2.5 ml/pot, cucumber Sagami Hanjiro, 6 to 10 days from inoculation
[2] = system: tomato late blight fungi (Phytophthora infestans); assay type: in vivo; conditions: for Test F control value: tomato late blight; for Test F control value class (tomato late blight): control value=100{1-(n/3)}
[3] = system: rice blast fungi (Magnaporthe grisea); assay type: in vivo; conditions: for Test A control value: rice blast; for Test A control value class (rice blast): control value=100{1-(n/3)}
[4] = spray treatment of tomato plants

| Compound | Test H control value ([1]; 250 ppm spray) | Test F control value ([2]; spray treatment) | Test A control value ([3]; spray treatment) | Test H control value class (cucumber anthracnose) ([1]; 250 ppm spray) | Test F control value class (tomato late blight) [2, 4] | Test A control value class (rice blast) ([3]; spray treatment of rice plants) | further results |
| --- | --- | --- | --- | --- | --- | --- | --- |
| CC(=O)c1cn(-c2ccccc2C)c(-c2c(F)cc(F)cc2F)c(C)c1=O [Compound 277] |  |  |  |  |  |  | Test H control value ([1]; 250 ppm spray (2.5 ml/pot)): H (H shows the control value of more than 50%); Test F control value [2, 4]: L (L shows the control value of 50% or less); Test A control value ([3]; spray treatment of rice plants): L (L shows the control value of 50% or less) |
| Cc1c(-c2ccc(F)cc2F)n(-c2ccccc2)cc(Br)c1=O [Compound 592] | H (H shows the control value of more than 50%) | L (L shows the control value of 50% or less) | L (L shows the control value of 50% or less) |  |  |  |  |
| O=c1c(Cl)cn(CC2CCCCC2)c(-c2c(F)cc(F)cc2F)c1Br [Compound 123] |  |  |  | L (L shows the control value of 50% or less) | L (L shows the control value of 50% or less) | H (H shows the control value of more than 50%) |  |
| CCc1c(-c2c(F)cc(F)cc2F)n(-c2ccccc2C)cc(C(C)=O)c1=O [Compound 327] |  |  |  |  |  |  | Test H control value ([1]; 250 ppm spray (2.5 ml/pot)): H (H shows the control value of more than 50%); Test F control value [2, 4]: L (L shows the control value of 50% or less); Test A control value ([3]; spray treatment of rice plants): H (H shows the control value of more than 50%) |
| CC(C)c1ccccc1-n1cc(Cl)c(=O)c(Br)c1-c1c(F)cc(F)cc1F [Compound 396] | L (L shows the control value of 50% or less) | L (L shows the control value of 50% or less) | H (H shows the control value of more than 50%) |  |  |  |  |
| C=CCn1cc(C)c(=O)c(C)c1-c1c(F)cc(F)cc1F [Compound 268] |  |  |  |  |  |  | Test H control value ([1]; 250 ppm spray (2.5 ml/pot)): L (L shows the control value of 50% or less); Test F control value [2, 4]: L (L shows the control value of 50% or less); Test A control value ([3]; spray treatment of rice plants): L (L shows the control value of 50% or less) |
| COc1cccc(F)c1-c1c(Cl)c(=O)c(Br)cn1-c1ccc(Br)cc1 [Compound 612] | L (L shows the control value of 50% or less) | H (H shows the control value of more than 50%) | L (L shows the control value of 50% or less) |  |  |  |  |
| CCc1c(-c2c(F)cccc2F)n(-c2cccc(OC)c2C)cc(Br)c1=O [Compound 549] | H (H shows the control value of more than 50%) | H (H shows the control value of more than 50%) | L (L shows the control value of 50% or less) |  |  |  |  |
| Cc1ccccc1-n1cc(C)c(=O)c(C)c1-c1ccc(C#N)cc1 [Compound 227] |  |  |  |  |  |  | Test H control value ([1]; 250 ppm spray (2.5 ml/pot)): L (L shows the control value of 50% or less); Test F control value [2, 4]: L (L shows the control value of 50% or less); Test A control value ([3]; spray treatment of rice plants): H (H shows the control value of more than 50%) |
| CCc1ccccc1-n1cc(C)c(=O)c(C)c1-c1ccccc1 [Compound 516] | H (H shows the control value of more than 50%) | H (H shows the control value of more than 50%) | L (L shows the control value of 50% or less) |  |  |  |  |
| O=c1c(Br)cn(-c2cccnc2Cl)c(-c2c(F)cc(F)cc2F)c1Cl [Compound 36] |  |  |  | H (H shows the control value of more than 50%) | L (L shows the control value of 50% or less) | H (H shows the control value of more than 50%) |  |
| CCc1c(-c2c(F)cc(F)cc2F)n(-c2ccccc2Cl)cc(C)c1=O [Compound 491] | H (H shows the control value of more than 50%) | L (L shows the control value of 50% or less) | H (H shows the control value of more than 50%) |  |  |  |  |
| CC(C)n1cc(Br)c(=O)c(Br)c1-c1c(F)cc(F)cc1F [Compound 12] |  |  |  | H (H shows the control value of more than 50%) | L (L shows the control value of 50% or less) | H (H shows the control value of more than 50%) |  |
| CCc1c(-c2c(F)cccc2F)n(-c2cc(C)ccc2C)cc(C)c1=O [Compound 540] | H (H shows the control value of more than 50%) | L (L shows the control value of 50% or less) | L (L shows the control value of 50% or less) |  |  |  |  |
| Cc1ccc([N+](=O)[O-])cc1-n1cc(Br)c(=O)c(Br)c1-c1c(F)cc(F)cc1F [Compound 325] |  |  |  |  |  |  | Test H control value ([1]; 250 ppm spray (2.5 ml/pot)): H (H shows the control value of more than 50%); Test F control value [2, 4]: L (L shows the control value of 50% or less); Test A control value ([3]; spray treatment of rice plants): H (H shows the control value of more than 50%) |
| O=c1c(Br)cn(-c2ccccc2)c(-c2ccc(F)cc2F)c1Cl [Compound 469] | H (H shows the control value of more than 50%) | L (L shows the control value of 50% or less) | H (H shows the control value of more than 50%) |  |  |  |  |

| Compound | Test H control value ([1]; 250 ppm spray) | Test F control value ([2]; spray treatment) | Test A control value ([3]; spray treatment) | Test H control value class (cucumber anthracnose) ([1]; 250 ppm spray) | Test F control value class (tomato late blight) [2, 4] | Test A control value class (rice blast) ([3]; spray treatment of rice plants) | further results |
| --- | --- | --- | --- | --- | --- | --- | --- |
| CCC(C)Cn1cc(Br)c(=O)c(Cl)c1-c1c(F)cc(F)cc1F (stereo not drawn) [Compound 166] |  |  |  | H (H shows the control value of more than 50%) | L (L shows the control value of 50% or less) | H (H shows the control value of more than 50%) |  |
| CCc1c(-c2c(F)cccc2F)n(-c2cccc(Cl)c2C)cc(Br)c1=O [Compound 524] | L (L shows the control value of 50% or less) | L (L shows the control value of 50% or less) | H (H shows the control value of more than 50%) |  |  |  |  |
| Cc1cn(-c2ccccc2F)c(-c2c(F)cccc2F)c(C)c1=O [Compound 351] |  |  |  |  |  |  | Test H control value ([1]; 250 ppm spray (2.5 ml/pot)): H (H shows the control value of more than 50%); Test F control value [2, 4]: L (L shows the control value of 50% or less); Test A control value ([3]; spray treatment of rice plants): H (H shows the control value of more than 50%) |
| Cc1c(Br)cccc1-n1cc(C)c(=O)c(C)c1-c1c(F)cc(F)cc1F [Compound 480] | H (H shows the control value of more than 50%) | L (L shows the control value of 50% or less) | H (H shows the control value of more than 50%) |  |  |  |  |
| CCc1c(-c2ccccc2)n(-c2ccccc2C)cc(Br)c1=O [Compound 475] | H (H shows the control value of more than 50%) | L (L shows the control value of 50% or less) | H (H shows the control value of more than 50%) |  |  |  |  |
| Cc1ccc(OCC#N)cc1-n1cc(Br)c(=O)c(Cl)c1-c1c(F)cc(F)cc1F [Compound 284] |  |  |  |  |  |  | Test H control value ([1]; 250 ppm spray (2.5 ml/pot)): H (H shows the control value of more than 50%); Test F control value [2, 4]: L (L shows the control value of 50% or less); Test A control value ([3]; spray treatment of rice plants): H (H shows the control value of more than 50%) |
| O=c1c(Cl)cn(Cc2ccccc2)c(-c2c(F)cc(F)cc2F)c1Cl [Compound 48] |  |  |  | H (H shows the control value of more than 50%) | L (L shows the control value of 50% or less) | H (H shows the control value of more than 50%) |  |
| O=c1c(Cl)cn(-c2cccnc2Cl)c(-c2c(F)cc(F)cc2F)c1Br [Compound 34] |  |  |  | H (H shows the control value of more than 50%) | H (H shows the control value of more than 50%) | H (H shows the control value of more than 50%) |  |
| COc1cc(F)c(-c2c(Br)c(=O)c(Cl)cn2C(C)C(C)C)c(F)c1 (stereo not drawn) [Compound 50] |  |  |  | H (H shows the control value of more than 50%) | L (L shows the control value of 50% or less) | H (H shows the control value of more than 50%) |  |
| CCc1c(-c2c(F)cc(F)cc2F)n(-c2ccccc2)cc(C)c1=O [Compound 493] | H (H shows the control value of more than 50%) | L (L shows the control value of 50% or less) | H (H shows the control value of more than 50%) |  |  |  |  |
| Cc1ccccc1-n1cc(C)c(=O)c(C)c1-c1c(F)cccc1F [Compound 500] | H (H shows the control value of more than 50%) | L (L shows the control value of 50% or less) | H (H shows the control value of more than 50%) |  |  |  |  |
| COc1cc(F)c(-c2c(Cl)c(=O)c(Cl)cn2C2CCCCC2)c(F)c1 [Compound 28] |  |  |  | H (H shows the control value of more than 50%) | L (L shows the control value of 50% or less) | H (H shows the control value of more than 50%) |  |
| Cc1cn(-c2ccccc2)c(-c2ccc(F)cc2F)c(C)c1=O [Compound 466] | H (H shows the control value of more than 50%) | L (L shows the control value of 50% or less) | H (H shows the control value of more than 50%) |  |  |  |  |
| CC1CCCCC1n1cc(Cl)c(=O)c(Br)c1-c1c(F)cc(F)cc1F (stereo not drawn) [Compound 154] |  |  |  | L (L shows the control value of 50% or less) | L (L shows the control value of 50% or less) | H (H shows the control value of more than 50%) |  |
| COc1cccc(-n2cc(Cl)c(=O)c(Br)c2-c2c(F)cc(F)cc2F)c1C [Compound 436] | H (H shows the control value of more than 50%) | H (H shows the control value of more than 50%) | H (H shows the control value of more than 50%) |  |  |  |  |
| Cc1cccc(-n2cc(Br)c(=O)c(Br)c2-c2c(F)cc(F)cc2F)c1C [Compound 164] |  |  |  | H (H shows the control value of more than 50%) | L (L shows the control value of 50% or less) | H (H shows the control value of more than 50%) |  |

Read-outs that look alike come from different tables or passages of the source.
